The values that follow come from ChEMBL document CHEMBL1201862, “PubChem BioAssay data set” (2004).

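Exposure lasted 48 hours, with cells grown in 96-well plates and compounds tested at five concentrations. GI50 marks 50% less growth.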 Calls of active or inactive are those of the source. Rule as the data show it: active = GI50 up to about 1.1 µM and inactive = higher.

In the experiment the test system is NCI-H322M. Kind of experiment: DTP human tumour cell line panel, 48 h.
Consider `CCOC(=O)c1c(N=C(S)Nc2ccccc2)sc2c1CCN(C)C2`, for which the GI50 (usually the concentration at which growth is held to half of that of the control) was inactive: > 100 µM.

Turning to `COc1ccc2c(c1)[n+]([O-])c(C(C)=O)c(C)[n+]2[O-]`, the GI50 is inactive: > 100 µM.

As to `COc1ccc(-c2cc(O)c3cc(Cl)ccc3n2)cc1`, the GI50 was inactive: > 100 µM.

Consider `C=Cc1cc2c(cc1O)CC[C@@H]1[C@@H]2CC[C@]2(C)[C@@H](O)CC[C@@H]12`, for which the GI50 is inactive: 3.58 µM.

With `CN(CC(=O)O)CC(=O)O`, the GI50 was inactive: > 100 µM.

Regarding `Nc1n[c-](N)[n+](=O)c(N)c1NCO`, the GI50 was inactive: > 100 µM.

For the compound `NCCC(=O)NC(Cc1c[nH]cn1)C(=O)O` (configuration not stated), the GI50 is inactive: > 100 µM.

`COc1cc2c(cc1OC)C13CCN4CC5=CCOC(CC(=O)O)C(C5CC41)C3N2` (configuration not stated): the GI50 was inactive: > 100 µM.

As to `Cc1ccc(S(=O)(=O)NC(=O)NC2=NC(C)(C)N(c3ccc(Cl)c(Cl)c3)C(N)=N2)cc1`, the GI50 was inactive: 6.67 µM.

As for `O/N=C1\C(=C\c2ccc3c(c2)OCCO3)CCCC1C(NO)c1ccc2c(c1)OCCO2` (configuration not stated), the GI50 is inactive: 18.5 µM.

Consider `NC(Cc1ccc(O)cn1)C(=O)NC(C(=O)O)c1ccccc1` (configuration not stated), for which the GI50 is inactive: > 100 µM.

As for `Nc1ncnc2nc(N3CCN(CCO)CC3)[nH]c12`, the GI50 is inactive: > 100 µM.

Regarding `CC[P+](C)(C)c1ccccc1`, the GI50 is inactive: > 100 µM.

For `CCCC(=O)O[C@H]1C=C2C[C@@]34SS[C@]5(CC6=C[C@H](OC(C)=O)[C@@H]7O[C@@H]7[C@H]6N5C3=O)C(=O)N4[C@@H]2[C@H]2O[C@H]21`, the GI50 was active: 0.0184 µM.

With `CC(=O)NC1=CC(=O)C=C(Cl)C1=O`, the GI50 was inactive: > 100 µM.

For the compound `O=C(O)CN1CCN2CCOCCOCCN(CC1)CCN(CC(=O)O)CC2`, the GI50 was inactive: > 100 µM.

With `COc1c2c(cc3c(CCc4ccccc4)cc(=O)oc13)CCC(C)(C)O2`, the GI50 was inactive: > 100 µM.

Take `C/C=C/C1=CC(=O)C(O)C1O` (configuration not stated): the GI50 was inactive: 30.8 µM.

As to `CC(=O)OCCCCn1cc(Cn2ccc(=O)n(Cc3cn(CCCCOC(C)=O)nn3)c2=O)nn1`, the GI50 is inactive: > 100 µM.

On to `C/C(=N\NS(=O)(=O)c1ccc(C)cc1)P(=O)(O)O`, for which the GI50 is inactive: > 100 µM.

`Nc1ncc(CN2CCOCC2)c(-c2ccccc2O)n1`: the GI50 is inactive: > 100 µM.

As for `COc1cc2c(cc1OC)-c1c(cnn1C1OC(COC(C)=O)C(OC(C)=O)C(OC(C)=O)C1OC(C)=O)CC2` (configuration not stated), the GI50 is inactive: > 100 µM.

As to `NC(=O)N/N=C\c1ccccc1OCc1cccc(COc2ccccc2/C=N\NC(N)=O)n1`, the GI50 is inactive: 23.9 µM.

In the case of `CCCCCCc1cc2cc(C(=O)Nc3ccc(F)cc3)c(=N)oc2cc1O`, the GI50 was inactive: 5.11 µM.

For the compound `NC(=O)Cn1c(=O)[nH]c(=O)c2[nH]cnc21`, the GI50 was inactive: > 100 µM.

`CCOC(=O)/C(=C\c1cccc(C)c1)C(C)=O`: the GI50 is inactive: 14.7 µM.

Consider `c1ccc2c(c1)N=C(c1cccc3ccccc13)CC(c1cccc3ccccc13)S2` (configuration not stated), for which the GI50 was inactive: 13.8 µM.

With `CNNC1=NS(=O)(=O)c2cc(C)c(Cl)cc2S1`, the GI50 was inactive: > 10 µM.

As for `CCOC(=O)C(NC(=O)c1ccccc1)(c1ccc(S(=O)(=O)Nc2onc(C)c2C)cc1)C(F)(F)F` (configuration not stated), the GI50 was inactive: > 100 µM.

Turning to `Clc1ccc(CCc2ccncn2)c(Cl)c1`, the GI50 was inactive: > 100 µM.

Turning to `O=[N+]([O-])C(/C=C(\Cl)[N+](=O)[O-])=C(N1CCOCC1)N1CCOCC1`, the GI50 was inactive: > 100 µM.

Regarding `O=C(O)c1ccc2c(c1)Cc1cc([N+](=O)[O-])ccc1-2`, the GI50 is inactive: > 100 µM.

On to `CN(C)c1c(C2OC(CO)C(O)C2O)c(=O)c1=O` (configuration not stated), for which the GI50 was inactive: > 100 µM.

Regarding `CC(C)(Cl)C(Cl)CC/C(CBr)=C(\Cl)CBr` (configuration not stated), the GI50 is inactive: 13.4 µM.

`Cc1ccnc2nc(N)ccc12`: the GI50 is inactive: > 100 µM.

`Oc1ccccc1-c1nn2c(CCCCCCCCc3nnc4sc(-c5ccccc5O)nn34)nnc2s1`: the GI50 is inactive: 13.1 µM.

As for `CCOC(=O)C1=C(C)NC(=O)N([N+](=O)[O-])C1c1ccccc1C(F)(F)F` (configuration not stated), the GI50 is inactive: > 100 µM.

In the case of `COC(=O)[C@@H]1C[C@@]23CCCN4CC[C@@]5(c6cccc(OC)c6N(C=O)[C@]15CC2)[C@@H]43`, the GI50 is inactive: > 100 µM.

Regarding `CCC(=O)c1c(NOC2OCC(OC(C)=O)C(OC(C)=O)C2OC(C)=O)nc(OC)n(C)c1=O` (configuration not stated), the GI50 is inactive: > 100 µM.

On to `N=C(N)N/N=C(\c1ccc(Cl)cc1)C1CC1`, for which the GI50 is inactive: 23.2 µM.

As for `Fc1ccc(C(OCCN2CCC3CCC(C2)N3Cc2cc3ccccc3[nH]2)c2ccc(F)cc2)cc1` (configuration not stated), the GI50 is inactive: 2.61 µM.

For the compound `CCOC(=O)C(C)NC(=O)NC12CC3CC(CC(F)(C3)C1)C2` (configuration not stated), the GI50 is inactive: > 100 µM.

Regarding `COc1cc2c(c3oc(-c4ccc5c(c4)OCO5)c(O)c(=O)c13)CCC(C)(C)O2`, the GI50 was inactive: > 100 µM.

On to `O=C(COc1cc(=O)oc2ccccc12)c1ccccc1`, for which the GI50 was inactive: 42.6 µM.

Consider `O=[N+]([O-])/C(C(Cl)=C(Cl)Cl)=C(\Nc1cccc2cccnc12)SCc1ccccc1`, for which the GI50 was inactive: 20.3 µM.

`NNC(=S)NCCNC(=S)NN`: the GI50 was inactive: > 100 µM.

For the compound `O/N=C(\CC(O)(C(F)(F)F)C(F)(F)F)c1cccs1`, the GI50 was inactive: > 10 µM.

`COc1ccc(NC(=O)CC(=O)NN)cc1`: the GI50 is inactive: > 100 µM.

With `COC(=O)CCC(=O)N1C/C(=C\c2ccccc2)C(=O)/C(=C/c2ccccc2)C1`, the GI50 is inactive: 4.85 µM.

As for `CC(C)(C)C1=C(Br)C(O)(C(C)(C)C)OP1(=O)c1ccccc1` (configuration not stated), the GI50 is inactive: > 100 µM.

As for `COC(=O)c1cc2c(cc1CC(Cc1ccc3c(c1)CCC3)C(=O)OC)CCC2` (configuration not stated), the GI50 was inactive: > 100 µM.

On to `Nc1nc(Cl)c(/C=N\O)c(NCC2(CO)CCC2)n1`, for which the GI50 is inactive: 22 µM.

Take `COc1cc(Nc2cc(Cl)cc(Cl)c2)nc(N)n1`: the GI50 is inactive: 22.5 µM.

`CC1=C(C(=O)Nc2ccccc2)C(c2ccc3c(c2)OCO3)C(C(=O)Nc2ccccc2)=C(C)N1`: the GI50 was inactive: 66.8 µM.

Consider `Cn1cc(C(=O)c2ccccc2)ccc1=O`, for which the GI50 was inactive: > 100 µM.

Turning to `CCCCN(CCCC)C1=Nc2ccccc2-n2c(nnc2C(=O)OCC)C1`, the GI50 was inactive: > 100 µM.

As for `CCN(CC)CCCNc1nc(=O)[nH]c(C)c1C(=O)Nc1cccc2cc3ccccc3cc12`, the GI50 was inactive: > 100 µM.

As to `CC1=C(C(=O)OCCO[N+](=O)[O-])C(c2ccccc2C(F)(F)F)C(C(=O)OC(C)C)=C(C)N1` (configuration not stated), the GI50 is inactive: 47 µM.

Take `O=C(CC12C3C4C1C1C2C3C41CC(=O)NO)NO` (configuration not stated): the GI50 is inactive: 62.2 µM.

On to `Cn1cc(NC(=O)[C@H]2CCC(N)=N2)cc1C(=O)NCCC(=N)N`, for which the GI50 was inactive: > 100 µM.

In the case of `N=C1NC(c2ccc(Cl)cc2)=CC(c2cccc(Cl)c2)S1` (configuration not stated), the GI50 is inactive: 42.7 µM.

`CN(C)c1ccc(C2SCC(=O)N2NS(=O)(=O)c2cccc(C(=O)O)c2)cc1` (configuration not stated): the GI50 is inactive: 66.1 µM.

For the compound `N#Cc1nc(CCCN2C(=O)c3ccccc3C2=O)oc1N`, the GI50 was inactive: > 100 µM.

As for `N#C/C(=C/c1ccco1)C(=O)c1ccccc1`, the GI50 is inactive: > 100 µM.

For the compound `CCOC(=O)c1cc(C2CCN(Cc3ccccc3)C2=S)c(C(=O)C=[N+]=[N-])[nH]1` (configuration not stated), the GI50 was inactive: 31.8 µM.

As to `C=C1c2nc3ccccc3n2C=C(c2ccccc2)N1c1ccc([N+](=O)[O-])cc1`, the GI50 was inactive: 20.8 µM.

With `Cc1cc(N(CCC#N)CCC#N)ccc1/C=C/C(=O)Nc1ccccc1Cl`, the GI50 was inactive: > 100 µM.

With `CC(C(O)c1ccccc1)C(O)(C(F)(F)F)C(F)(F)F` (configuration not stated), the GI50 was inactive: > 100 µM.

With `CC(C)c1ccccc1SCc1cc(=O)cc(CSc2ccccc2C(C)C)o1`, the GI50 is inactive: 19.5 µM.

Consider `ClC1=C(Cl)C(Cl)(Cl)SS1`, for which the GI50 is inactive: > 10 µM.

Turning to `COc1cc(C2C(C(=O)Nc3ccccc3C)=C(C)NC(C)=C2C(=O)Nc2ccccc2C)ccc1O`, the GI50 was inactive: > 100 µM.

In the case of `COC(=O)c1c2c(cc3c1CC1(C3)Cc3cc4c(c(C(=O)OC)c3C1)CCC4)CCC2`, the GI50 was inactive: > 100 µM.

With `O=S(=O)(N/N=C/c1ccc(Cl)cc1Cl)c1ccccc1`, the GI50 was inactive: > 100 µM.

For the compound `O=C1Nc2cc([N+](=O)[O-])c(Br)cc2C1=O`, the GI50 was inactive: 57.5 µM.

Turning to `CC1=NN(C(=O)c2cc(Cl)cc([N+](=O)[O-])c2)C(=O)C1/N=N/c1ccccc1C(=O)O` (configuration not stated), the GI50 is inactive: > 100 µM.

For the compound `CN(C)CCNc1nc2c(c(=O)n(C)c(=O)n2C)n1C`, the GI50 was inactive: > 100 µM.

For `CC(C)COC1Sc2ccccc2S1`, the GI50 was inactive: 17.3 µM.

Turning to `COC(=O)/C=C1/OC(c2ccccc2)=C(Br)C1=O`, the GI50 was inactive: > 100 µM.

Regarding `N#C/C(N)=C(C#N)/N=C/NCc1ccccc1`, the GI50 was inactive: > 100 µM.

As to `O=C(CC(=O)n1nc(-c2ccccc2)c(/N=N/c2ccc(Cl)cc2)c1-c1ccccc1)Nc1ccc(Cl)cc1`, the GI50 is inactive: > 100 µM.

Take `Brc1cccc(Nc2ncnc3sc4c(c23)CCC(Nc2cccc(Br)c2)C4)c1` (configuration not stated): the GI50 is inactive: > 100 µM.

In the case of `COC(=O)c1cc(CC(C)C)c2c(c1)[nH]c1ccccc12`, the GI50 is inactive: > 100 µM.

Take `O=S1(=O)C[C@H](O)[C@H](O)CS1`: the GI50 was inactive: > 100 µM.

`Cc1ccc(S(=O)(=O)N(CC(=O)O)c2ccccc2)cc1`: the GI50 is inactive: > 100 µM.

Regarding `Cc1cc(S(=O)(=O)Nc2nc3ccsc3c(=O)n2N)c(S)cc1Cl`, the GI50 is inactive: 52 µM.

`Cn1c(=O)nc2n(-c3cccc(Br)c3)c3ccccc3nc-2c1=O`: the GI50 is inactive: 5.2 µM.

`CC1(C)N=C(N)N=C(N)N1c1ccc(Cl)cc1`: the GI50 was inactive: 12.5 µM.
